pIC50: −log10 of the molar value. Lines with a small IC50 respond at low doses; where the fit passes the top or lowest dose, that dose stands as a limit. AUC, from the same fit, is the share of area under the viability curve across the 256-fold dose range: 1 means no effect, lower means more sensitive. For part of these data: Where the top dose is marked as inferred, it is not printed in the source and was worked back from the curve model.
What was measured:
Assay in all cases: Viability of human cancer cell lines after 72 h of drug (GDSC screen)
AV-951 = compound: COc1cc2nccc(Oc3ccc(NC(=O)Nc4cc(C)on4)c(Cl)c3)c2cc1OC [AV-951]; details: top dose 0.128 µM; top dose inferred
Procedure: (§1)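 Human cancer cell lines in 384-well plates, medium with 10% serum, drug for 72 h over a 256-fold dose range (nine 2-fold or five 4-fold steps up to the top dose). Adherent lines were fixed and stained with the nucleic acid dye Syto60, suspension lines read with resazurin; signal relative to control wells, capped at 0 and 100%. One two-parameter sigmoid per drug and line, fitted in a mixed model over all curves with the slope shared within a line.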

I-BET-762 = compound: CCNC(=O)C[C@@H]1N=C(c2ccc(Cl)cc2)c2cc(OC)ccc2-n2c(C)nnc21 [I-BET-762]; details: top dose 20 µM; top dose inferred
Procedure: as §1

HG-6-64-1 = compound: CCN1CCN(Cc2ccc(NC(=O)c3ccc(C)c(/C=C/c4cnc5[nH]ccc5c4OC)c3)cc2C(F)(F)F)CC1 [HG-6-64-1]; details: top dose 5.12 µM; top dose inferred
Procedure: as §1

Trametinib = compound: CC(=O)Nc1cccc(-n2c(=O)n(C3CC3)c(=O)c3c(Nc4ccc(I)cc4F)n(C)c(=O)c(C)c32)c1 [Trametinib]; details: top dose 1 µM
Procedure: as §1

MS-275 = compound: Nc1ccccc1NC(=O)c1ccc(CNC(=O)OCc2cccnc2)cc1 [MS-275]; details: top dose 5 µM; top dose inferred
Procedure: as §1

KIN001-244 = compound: O=C(NC(COc1ccc2[nH]c(=O)[nH]c2c1)c1ccccc1)c1cccn(Cc2ccc(F)c(F)c2)c1=O [KIN001-244]; details: top dose 20 µM; top dose inferred
Procedure: as §1

PF-4708671 = compound: CCc1cncnc1N1CCN(Cc2nc3ccc(C(F)(F)F)cc3[nH]2)CC1 [PF-4708671]; details: top dose 10 µM; top dose inferred
Procedure: as §1

With KNS-42 (glioma, adherent) as the cell line, how does the AUC (AV-951) read?
Its AUC is 0.982.

What about the pIC50 (AV-951) of the same cell line?
Its pIC50 is under 6.89.

And the AUC (I-BET-762)?
The AUC was 0.946.

What about the pIC50 (I-BET-762) of the same cell line?
Its pIC50 is under 4.70.

And the AUC (HG-6-64-1)?
Its AUC is 0.711.

And the pIC50 (HG-6-64-1)?
Its pIC50 is 5.84.

And the AUC (Trametinib)?
The AUC was 0.964.

And the pIC50 (Trametinib)?
The pIC50 was under 6.00.

What about the AUC (MS-275) of the same cell line?
The AUC was 0.949.

What about the pIC50 (MS-275) of the same cell line?
The pIC50 was under 5.30.

And the AUC (KIN001-244)?
The AUC was 0.929.

What about the pIC50 (KIN001-244) of the same cell line?
Its pIC50 is under 4.70.

What about the AUC (PF-4708671) of the same cell line?
Its AUC is 0.946.

What about the pIC50 (PF-4708671) of the same cell line?
The pIC50 was under 5.00.

With KNS-81-FD (glioma, adherent) as the cell line, how does the AUC (AV-951) read?
The AUC was 0.968.

And the pIC50 (AV-951)?
Its pIC50 is under 6.89.

What about the AUC (I-BET-762) of the same cell line?
Its AUC is 0.894.

What about the pIC50 (I-BET-762) of the same cell line?
Its pIC50 is under 4.70.

And the AUC (HG-6-64-1)?
The AUC was 0.942.

And the pIC50 (HG-6-64-1)?
Its pIC50 is under 5.29.

And the AUC (Trametinib)?
Its AUC is 0.728.

And the pIC50 (Trametinib)?
The pIC50 was 6.44.

And the AUC (MS-275)?
Its AUC is 0.836.

What about the pIC50 (MS-275) of the same cell line?
Its pIC50 is under 5.30.

What about the AUC (KIN001-244) of the same cell line?
Its AUC is 0.9.

What about the pIC50 (KIN001-244) of the same cell line?
Its pIC50 is under 4.70.

And the AUC (PF-4708671)?
The AUC was 0.892.

What about the pIC50 (PF-4708671) of the same cell line?
Its pIC50 is under 5.00.

What does the source list for KS-1 (glioma, adherent)?
AUC (AV-951): 0.979; pIC50 (AV-951): < 6.89; AUC (I-BET-762): 0.827; pIC50 (I-BET-762): 4.78; AUC (HG-6-64-1): 0.701; pIC50 (HG-6-64-1): 5.86; AUC (Trametinib): 0.336; pIC50 (Trametinib): 7.71; AUC (MS-275): 0.654; pIC50 (MS-275): 6.03; AUC (KIN001-244): 0.896; pIC50 (KIN001-244): < 4.70; AUC (PF-4708671): 0.941; pIC50 (PF-4708671): < 5.00

Which results are given for “KU812 (chronic myeloid leukaemia, suspension)”?
AUC (AV-951): 0.984; pIC50 (AV-951): < 6.89; AUC (I-BET-762): 0.284; pIC50 (I-BET-762): 6.49; AUC (HG-6-64-1): 0.34; pIC50 (HG-6-64-1): 6.92; AUC (Trametinib): 0.109; pIC50 (Trametinib): 8.40; AUC (MS-275): 0.764; pIC50 (MS-275): 5.78; AUC (KIN001-244): 0.134; pIC50 (KIN001-244): 6.99; AUC (PF-4708671): 0.931; pIC50 (PF-4708671): < 5.00

With KURAMOCHI (ovary, adherent) as the cell line, how does the AUC (AV-951) read?
The AUC was 0.98.

What about the pIC50 (AV-951) of the same cell line?
The pIC50 was under 6.89.

What about the AUC (I-BET-762) of the same cell line?
The AUC was 0.861.

What about the pIC50 (I-BET-762) of the same cell line?
The pIC50 was under 4.70.

What about the AUC (HG-6-64-1) of the same cell line?
The AUC was 0.63.

And the pIC50 (HG-6-64-1)?
Its pIC50 is 6.11.

What about the AUC (Trametinib) of the same cell line?
Its AUC is 0.878.

What about the pIC50 (Trametinib) of the same cell line?
Its pIC50 is under 6.00.

And the AUC (MS-275)?
Its AUC is 0.714.

What about the pIC50 (MS-275) of the same cell line?
The pIC50 was 5.85.

And the AUC (KIN001-244)?
The AUC was 0.908.

What about the pIC50 (KIN001-244) of the same cell line?
The pIC50 was under 4.70.

And the AUC (PF-4708671)?
The AUC was 0.976.

And the pIC50 (PF-4708671)?
The pIC50 was under 5.00.

How did the AUC (AV-951) turn out when KY821 (leukaemia, suspension) was run?
Its AUC is 0.992.

What about the pIC50 (AV-951) of the same cell line?
The pIC50 was under 6.89.

And the AUC (I-BET-762)?
The AUC was 0.976.

And the pIC50 (I-BET-762)?
The pIC50 was under 4.70.

And the AUC (HG-6-64-1)?
Its AUC is 0.982.

What about the pIC50 (HG-6-64-1) of the same cell line?
The pIC50 was under 5.29.

What about the AUC (Trametinib) of the same cell line?
Its AUC is 0.89.

What about the pIC50 (Trametinib) of the same cell line?
The pIC50 was 6.05.

And the AUC (MS-275)?
The AUC was 0.982.

What about the pIC50 (MS-275) of the same cell line?
Its pIC50 is under 5.30.

What about the AUC (KIN001-244) of the same cell line?
The AUC was 0.962.

And the pIC50 (KIN001-244)?
Its pIC50 is under 4.70.

And the AUC (PF-4708671)?
The AUC was 0.976.

What about the pIC50 (PF-4708671) of the same cell line?
Its pIC50 is under 5.00.

With KYM-1 (rhabdomyosarcoma, adherent) as the cell line, how does the AUC (AV-951) read?
Its AUC is 0.991.

What about the pIC50 (AV-951) of the same cell line?
The pIC50 was under 6.89.

What about the AUC (I-BET-762) of the same cell line?
The AUC was 0.958.

What about the pIC50 (I-BET-762) of the same cell line?
The pIC50 was under 4.70.

And the AUC (HG-6-64-1)?
The AUC was 0.959.

What about the pIC50 (HG-6-64-1) of the same cell line?
The pIC50 was under 5.29.

And the AUC (Trametinib)?
Its AUC is 0.935.

And the pIC50 (Trametinib)?
The pIC50 was under 6.00.

And the AUC (MS-275)?
The AUC was 0.981.

And the pIC50 (MS-275)?
The pIC50 was under 5.30.

What about the AUC (KIN001-244) of the same cell line?
The AUC was 0.922.

And the pIC50 (KIN001-244)?
The pIC50 was under 4.70.

What about the AUC (PF-4708671) of the same cell line?
Its AUC is 0.917.

What about the pIC50 (PF-4708671) of the same cell line?
The pIC50 was under 5.00.

L-428 (Hodgkin lymphoma, suspension) was tested. Which AUC (AV-951) did it give?
The AUC was 0.987.

And the pIC50 (AV-951)?
The pIC50 was under 6.89.

And the AUC (I-BET-762)?
The AUC was 0.99.

And the pIC50 (I-BET-762)?
Its pIC50 is under 4.70.

What about the AUC (HG-6-64-1) of the same cell line?
Its AUC is 0.876.

What about the pIC50 (HG-6-64-1) of the same cell line?
Its pIC50 is 5.39.

What about the AUC (Trametinib) of the same cell line?
The AUC was 0.992.

And the pIC50 (Trametinib)?
The pIC50 was under 6.00.

And the AUC (MS-275)?
Its AUC is 0.832.

And the pIC50 (MS-275)?
The pIC50 was 5.57.

And the AUC (KIN001-244)?
Its AUC is 0.949.

And the pIC50 (KIN001-244)?
The pIC50 was under 4.70.

And the AUC (PF-4708671)?
The AUC was 0.953.

And the pIC50 (PF-4708671)?
Its pIC50 is under 5.00.

For L-540 (Hodgkin lymphoma, suspension), which AUC (AV-951) is on record?
Its AUC is 0.978.

What about the pIC50 (AV-951) of the same cell line?
The pIC50 was under 6.89.

And the AUC (I-BET-762)?
Its AUC is 0.989.

And the pIC50 (I-BET-762)?
Its pIC50 is under 4.70.

What about the AUC (HG-6-64-1) of the same cell line?
The AUC was 0.763.

What about the pIC50 (HG-6-64-1) of the same cell line?
The pIC50 was 5.78.

And the AUC (Trametinib)?
The AUC was 0.986.

And the pIC50 (Trametinib)?
The pIC50 was under 6.00.

And the AUC (MS-275)?
Its AUC is 0.753.

What about the pIC50 (MS-275) of the same cell line?
The pIC50 was 5.82.

And the AUC (KIN001-244)?
Its AUC is 0.891.

What about the pIC50 (KIN001-244) of the same cell line?
Its pIC50 is 4.72.

What about the AUC (PF-4708671) of the same cell line?
The AUC was 0.99.

And the pIC50 (PF-4708671)?
The pIC50 was under 5.00.
